Experimental data: PubChem BioAssay (Tox21)
Several values for one entry are separate records, joined by “and”; a condition that tells them apart may be missing. Equal values may be shown once. The shares of active, inactive and inconclusive entries below differ from those in the screen. For some assays here: Where the call is inconclusive, the potency comes from a doubtful curve fit. The source holds several records for some structures; these can differ, active in one and inactive in another. Activity calls are given as the source filed them. Unless noted, calls come from the whole dose curve.

Legend:
[1] = biological target: Peroxisome proliferator-activated receptor gamma (Homo sapiens) (UniProt P37231); assay: qHTS assay to identify small molecule antagonists of the peroxisome proliferator-activated receptor gamma (PPARg) signaling pathway (AID 743191); conditions: HEK293H PPARg-UAS-bla, beta-lactamase ratio, antagonist, 17 h; ratio activity, negative = inhibition: at 62.6 µM (top of the series) unless noted; note: nearly all actives have a fitted effect of over 30% in size; note: potency is the fitted concentration of half-maximal effect
Sequence of UniProt P37231 (P37231 whole entry, looked up): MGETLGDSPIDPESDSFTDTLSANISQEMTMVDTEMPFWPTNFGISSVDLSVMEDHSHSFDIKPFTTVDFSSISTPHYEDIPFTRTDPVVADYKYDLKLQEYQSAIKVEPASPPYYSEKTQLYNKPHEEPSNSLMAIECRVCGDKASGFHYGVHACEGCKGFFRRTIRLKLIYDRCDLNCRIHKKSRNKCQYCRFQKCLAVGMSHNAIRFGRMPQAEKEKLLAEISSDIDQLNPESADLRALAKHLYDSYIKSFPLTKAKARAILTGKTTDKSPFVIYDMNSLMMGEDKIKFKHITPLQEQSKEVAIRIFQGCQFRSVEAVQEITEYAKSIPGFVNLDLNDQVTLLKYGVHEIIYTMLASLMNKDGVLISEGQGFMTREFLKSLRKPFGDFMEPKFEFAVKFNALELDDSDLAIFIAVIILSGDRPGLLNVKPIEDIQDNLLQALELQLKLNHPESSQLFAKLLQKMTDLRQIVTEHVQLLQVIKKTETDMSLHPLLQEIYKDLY
Method in brief: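 GeneBLAzer PPARg UAS-bla HEK293H cells carrying a UAS-driven beta-lactamase reporter were plated at 3000 cells/well, preincubated 5 h at 37C, then given compound for 17 h at 37C; LiveBLAzer B/G FRET substrate was read after 1 h at room temperature.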

[2] = qHTS assay to identify small molecule antagonists of the peroxisome proliferator-activated receptor gamma (PPARg) signaling pathway - cell viability counter screen (AID 743194; active = well fitted curve in the direction sought with a large enough effect in the repeat runs; inconclusive = weak or mixed curves; inactive = no such curve, though single readings can be large; an effect the other way counts as inactive or inconclusive; note: nearly all actives have a fitted effect of over 55% in size; note: potency is the fitted concentration of half-maximal effect; for activity change, negative = cytotoxicity: % is set by controls: 0 for no effect and ±100 for the full control effect); conditions: PPARg-bla HEK293H viability, CellTiter-Glo luminescence, 17 h, co-treated with 50 nM rosiglitazone; activity change, negative = cytotoxicity: at 62.6 µM (top of the series) unless noted
Method in brief: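 PPARg-UAS-bla HEK293H cells were plated, rested 5 h at 37 C, then treated with compounds plus rosiglitazone (50 nM final) for 17 h at 37 C; viability was then read by CellTiter-Glo luminescence after 30 min at room temperature.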

[3] = qHTS assay for small molecule agonists of the antioxidant response element (ARE) signaling pathway (AID 743202; active = well fitted activation curve with a large enough effect in the signal ratio in the repeat runs, not every such curve was filed as active; inconclusive = weak or mixed curves, or effect the other way; inactive = no such curve, though single readings can be large or run the other way; the % refers to the signal ratio; note: potency is the fitted concentration of half-maximal effect); conditions: HepG2 ARE-bla reporter, beta-lactamase FRET, 16 h; activation: at 73.3 µM (top of the series) unless noted
Method in brief: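 Read-out: LiveBLAzer B/G FRET substrate fluorescence after 2 h at room temperature, following 16 h compound treatment at 37 C of HepG2 cells carrying an ARE-driven beta-lactamase reporter.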

[4] = qHTS assay for small molecule activators of the heat shock response signaling pathway (AID 743210; active = well fitted activation curve with a large enough effect in the signal ratio in the repeat runs, with a control signal flat, not every such curve was filed as active; inconclusive = weak or mixed curves; the % refers to the signal ratio; note: potency is the fitted concentration of half-maximal effect); conditions: HeLa HSE-bla reporter, beta-lactamase ratio, 5 h; activation: at 62.6 µM (top of the series)
Method in brief: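 HSE-bla HeLa cells (beta-lactamase reporter under heat shock response elements) were exposed to compounds for 5 h at 37 C, then loaded with LiveBLAzer B/G FRET substrate for 2.5 h at room temperature before fluorescence reading.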

[5] = biological target: Peroxisome proliferator-activated receptor delta (Homo sapiens) (UniProt Q03181); assay: qHTS assay to identify small molecule antagonists of the peroxisome proliferator-activated receptor delta (PPARd) signaling pathway (AID 743215; active = well fitted inhibition curve with a large enough effect in the signal ratio in the repeat runs, not every such curve was filed as active; inconclusive = weak or mixed curves, or effect the other way; inactive = no such curve, though single readings can be large or run the other way; the % refers to the signal ratio;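 note: cells stimulated with agonist L165041 at 300 nM final during compound exposure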; note: potency is the fitted concentration of half-maximal effect); conditions: HEK293H PPARd-UAS-bla, beta-lactamase FRET ratio, antagonist, 17 h; ratio activity, negative = inhibition: at 62 µM (top of the series) unless noted
Sequence of UniProt Q03181 (Q03181 whole entry, looked up): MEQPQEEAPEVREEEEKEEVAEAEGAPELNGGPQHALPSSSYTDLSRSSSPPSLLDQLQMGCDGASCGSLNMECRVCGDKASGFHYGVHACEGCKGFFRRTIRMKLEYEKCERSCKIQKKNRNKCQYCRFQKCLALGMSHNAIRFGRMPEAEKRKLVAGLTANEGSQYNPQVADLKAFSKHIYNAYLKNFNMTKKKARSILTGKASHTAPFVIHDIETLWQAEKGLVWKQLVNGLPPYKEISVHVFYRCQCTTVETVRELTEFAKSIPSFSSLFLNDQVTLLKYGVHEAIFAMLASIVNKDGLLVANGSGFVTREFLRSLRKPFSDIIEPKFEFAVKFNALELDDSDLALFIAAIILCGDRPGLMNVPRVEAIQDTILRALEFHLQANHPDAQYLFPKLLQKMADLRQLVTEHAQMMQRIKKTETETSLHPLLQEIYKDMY
Method in brief: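 Antagonist-mode beta-lactamase reporter screen: HEK293H cells with UAS-bla under PPARd control, stimulated by 300 nM L165041 (final) alongside test compound for 17 h at 37 C, then FRET fluorescence after 2 h substrate incubation.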

[6] = biological target: Vitamin D3 receptor (Homo sapiens) (UniProt P11473); assay: qHTS assay to identify small molecule agonists of the vitamin D receptor (VDR) signaling pathway (AID 743222); conditions: HEK293T VDR-UAS-bla, beta-lactamase FRET ratio, 16 h; activation: at 63.5 µM (top of the series) unless noted; note: potency is the fitted concentration of half-maximal effect; for activation: % is set by controls: 0 for no effect and ±100 for the full control effect
Sequence of UniProt P11473 (P11473 whole entry, looked up): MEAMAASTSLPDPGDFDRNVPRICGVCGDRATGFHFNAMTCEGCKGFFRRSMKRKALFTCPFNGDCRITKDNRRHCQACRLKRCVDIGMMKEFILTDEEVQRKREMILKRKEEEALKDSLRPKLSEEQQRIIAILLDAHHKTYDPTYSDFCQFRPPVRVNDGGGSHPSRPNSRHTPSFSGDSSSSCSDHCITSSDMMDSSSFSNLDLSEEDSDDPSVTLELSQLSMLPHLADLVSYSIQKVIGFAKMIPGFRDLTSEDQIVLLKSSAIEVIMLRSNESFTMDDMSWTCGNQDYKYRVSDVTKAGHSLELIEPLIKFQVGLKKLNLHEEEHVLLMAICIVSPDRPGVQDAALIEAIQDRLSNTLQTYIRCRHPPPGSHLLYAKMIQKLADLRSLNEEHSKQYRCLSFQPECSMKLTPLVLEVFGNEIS
Method in brief: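 Agonist activity measured in VDR-bla reporter cells. Exposure 16 h, 37C, 5% CO2; detection by B/G FRET substrate, 2 h RT.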

[7] = biological target: Vitamin D3 receptor (Homo sapiens) (UniProt P11473); assay: qHTS assay to identify small molecule antagonists of the vitamin D receptor (VDR) signaling pathway (AID 743223; active = well fitted inhibition curve with a large enough effect in the signal ratio in the repeat runs, not every such curve was filed as active; inconclusive = weak or mixed curves, or effect the other way; inactive = no such curve, though single readings can be large or run the other way; the % refers to the signal ratio; note: potency is the fitted concentration of half-maximal effect; for activity change, negative = inhibition: % is set by controls: 0 for no effect and ±100 for the full control effect); conditions: VDR-UAS-bla HEK293T, beta-lactamase FRET ratio, 16 h; activity change, negative = inhibition: at 61 µM (top of the series) unless noted
Method in brief: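 Antagonist mode uses 1alpha,25-dihydroxyvitamin D3 at 3 nM final as stimulus. VDR-bla cells receive compounds in DMSO, incubate 16 h at 37C, then a beta-lactamase FRET substrate for 2 h at room temperature before fluorescence measurement.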

[8] = qHTS assay to identify small molecule agonists of the peroxisome proliferator-activated receptor delta (PPARd) signaling pathway - cell viability counter screen (AID 743211; active = well fitted curve in the direction sought with a large enough effect in the repeat runs; inconclusive = weak or mixed curves; inactive = no such curve, though single readings can be large; an effect the other way counts as inactive or inconclusive; note: nearly all actives have a fitted effect of over 55% in size; note: potency is the fitted concentration of half-maximal effect); conditions: PPARd-bla HEK293H viability, CellTiter-Glo luminescence, 17 h; activity change, negative = cytotoxicity: at 62.6 µM (top of the series)
Method in brief: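 HEK293H PPARd-bla, 3000 cells/well; 5 h preincubation 37C/5% CO2; cpd in DMSO, 17 h 37C; B/G FRET substrate 2 h RT; CellTiter-Glo 30 min RT, luminescence.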

[9] = qHTS assay to identify small molecule antagonists of the peroxisome proliferator-activated receptor delta (PPARd) signaling pathway - cell viability counter screen (AID 743213; active = well fitted curve in the direction sought with a large enough effect in the repeat runs; inconclusive = weak or mixed curves; inactive = no such curve, though single readings can be large; an effect the other way counts as inactive or inconclusive; note: potency is the fitted concentration of half-maximal effect; nearly all actives have a fitted effect of over 50% in size); conditions: PPARd-bla HEK293H viability, CellTiter-Glo luminescence, 17 h; viability change, negative = cytotoxic: at 62 µM (top of the series) unless noted
Method in brief: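 PPARd-bla HEK293H cells were treated with compounds plus agonist L165041 (300 nM final) for 17 h at 37 C. Viability was then read in the same wells by CellTiter-Glo luminescence after 30 min at room temperature.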

[10] = biological target: Bile acid receptor (Homo sapiens) (UniProt Q96RI1); assay: qHTS assay to identify small molecule antagonists of the farnesoid-X-receptor (FXR) signaling pathway (AID 743217; active = well fitted inhibition curve with a large enough effect in the signal ratio in the repeat runs, not every such curve was filed as active; inconclusive = weak or mixed curves, or effect the other way; inactive = no such curve, though single readings can be large or run the other way; the % refers to the signal ratio; note: potency is the fitted concentration of half-maximal effect); conditions: HEK293T FXR-UAS-bla, beta-lactamase ratio, CDCA-stimulated, 16 h; activity change, negative = inhibition: at 62.6 µM (top of the series) unless noted
Sequence of UniProt Q96RI1 (Q96RI1 whole entry, looked up): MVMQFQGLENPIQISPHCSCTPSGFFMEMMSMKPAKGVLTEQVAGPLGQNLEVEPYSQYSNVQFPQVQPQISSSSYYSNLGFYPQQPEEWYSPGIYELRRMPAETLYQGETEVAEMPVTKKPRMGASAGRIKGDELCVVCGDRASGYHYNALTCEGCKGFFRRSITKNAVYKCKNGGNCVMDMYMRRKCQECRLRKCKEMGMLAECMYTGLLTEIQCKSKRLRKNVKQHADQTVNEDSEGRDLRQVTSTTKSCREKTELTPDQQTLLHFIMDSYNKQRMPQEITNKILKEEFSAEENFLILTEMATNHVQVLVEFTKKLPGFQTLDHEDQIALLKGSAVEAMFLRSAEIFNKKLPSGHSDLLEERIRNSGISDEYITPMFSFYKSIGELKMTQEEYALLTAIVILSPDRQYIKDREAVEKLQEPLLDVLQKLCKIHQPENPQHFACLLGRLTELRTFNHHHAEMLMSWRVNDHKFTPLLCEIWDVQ
Method in brief: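 Beta-lactamase reporter under UAS control in HEK 293T cells; compound exposure 16 h at 37 °C in the presence of chenodeoxycholic acid (50 uM final); signal from B/G FRET substrate after 2 h at room temperature.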

[11] = qHTS assay to identify small molecule agonists of the farnesoid-X-receptor (FXR) signaling pathway - cell viability counter screen (AID 743218; active = well fitted curve in the direction sought with a large enough effect in the repeat runs; inconclusive = weak or mixed curves; inactive = no such curve, though single readings can be large; an effect the other way counts as inactive or inconclusive; note: nearly all actives have a fitted effect of over 45% in size; note: potency is the fitted concentration of half-maximal effect); conditions: FXR-bla HEK293T viability, CellTiter-Glo luminescence, 16 h; viability change, negative = cytotoxic: at 62.6 µM (top of the series) unless noted
Method in brief: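 In GeneBLAzer FXR-UAS-bla HEK 293T cells, compounds act for 16 h at 37 C. Cell viability is then scored in the reporter wells by CellTiter-Glo, 30 min at RT, luminescence.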

[12] = qHTS assay for small molecule agonists of the antioxidant response element (ARE) signaling pathway - cell viability counter screen (AID 743203); conditions: ARE-bla HepG2 viability, CellTiter-Glo luminescence, 16 h; viability change, negative = cytotoxic: at 73.3 µM (top of the series); note: nearly all actives have a fitted effect of over 55% in size; note: potency is the fitted concentration of half-maximal effect
Method in brief: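 Cells (ARE-bla HepG2, 2,000/well) receive DMSO-dissolved compounds after a 5 hrs rest. Plates incubate 16 hrs at 37C/5% CO2. CellTiter-Glo luminescence is then recorded after 30 min at room temperature.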

[13] = qHTS assay for small molecule activators of the heat shock response signaling pathway - cell viability counter screen (AID 743209; active = well fitted curve in the direction sought with a large enough effect in the repeat runs; inconclusive = weak or mixed curves; inactive = no such curve, though single readings can be large; an effect the other way counts as inactive or inconclusive; note: potency is the fitted concentration of half-maximal effect; nearly all actives have a fitted effect of over 50% in size); conditions: HSE-bla HeLa viability, CellTiter-Glo luminescence, 5 h; activity change, negative = cytotoxicity: at 62.6 µM (top of the series) unless noted
Method in brief: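 Quantitative HTS format, Tox21 10K library. HeLa cells carrying an HSE-driven beta-lactamase reporter were treated 5 h at 37 C, then assessed for viability by CellTiter-Glo luminescence.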

[14] = biological target: Peroxisome proliferator-activated receptor delta (Homo sapiens) (UniProt Q03181); assay: qHTS assay to identify small molecule agonists of the peroxisome proliferator-activated receptor delta (PPARd) signaling pathway (AID 743212); conditions: HEK293H PPARd-UAS-bla, beta-lactamase FRET ratio, 17 h; activation: at 62.6 µM (top of the series) unless noted; note: potency is the fitted concentration of half-maximal effect
Method in brief: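 GeneBLAzer PPARd UAS-bla HEK293H cells (beta-lactamase reporter under UAS control), plated and rested 5 h at 37 C, then exposed to compounds in DMSO at 37 C; LiveBLAzer B/G FRET substrate added, 2 h room temperature, fluorescence read.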

[15] = qHTS assay to identify small molecule antagonists of the farnesoid-X-receptor (FXR) signaling pathway - cell viability counter screen (AID 743221; active = well fitted cell-killing curve with a large enough effect in the repeat runs, not every such curve was filed as active; inconclusive = weak or mixed curves, or effect the other way; inactive = no such curve, though single readings can be large or run the other way; note: potency is the fitted concentration of half-maximal effect; nearly all actives have a fitted effect of over 50% in size); conditions: FXR-bla HEK293T viability, CellTiter-Glo luminescence, 16 h; activity change, negative = cytotoxicity: at 62.6 µM (top of the series)
Method in brief: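 Luminescence from CellTiter-Glo measures cytotoxicity in GeneBLAzer FXR-UAS-bla HEK 293T cells. Cells were exposed to compounds with 50 uM chenodeoxycholic acid (final) for 16 h at 37 C, in wells also used for the reporter readout.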

[16] = biological target: Bile acid receptor (Homo sapiens) (UniProt Q96RI1); assay: qHTS assay to identify small molecule agonists of the farnesoid-X-receptor (FXR) signaling pathway (AID 743220; active = well fitted activation curve with a large enough effect in the signal ratio in the repeat runs, not every such curve was filed as active; inconclusive = weak or mixed curves, or effect the other way; the % refers to the signal ratio; note: % is set by controls: 0 for no effect and ±100 for the full control effect); conditions: HEK293T FXR-UAS-bla, beta-lactamase FRET ratio, 16 h; activation: at 62.6 µM (top of the series) unless noted
Method in brief: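 Beta-lactamase reporter under UAS control in GeneBLAzer FXR HEK 293T cells (5000/well) measured with LiveBLAzer FRET substrate after 2 h at room temperature. Compound exposure lasted 16 h at 37C.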

[17] = qHTS assay to identify small molecule agonists of the vitamin D receptor (VDR) signaling pathway - cell viability counter screen (AID 743224; active = well fitted curve in the direction sought with a large enough effect in the repeat runs; inconclusive = weak or mixed curves; inactive = no such curve, though single readings can be large; an effect the other way counts as inactive or inconclusive; note: potency is the fitted concentration of half-maximal effect; nearly all actives have a fitted effect of over 50% in size); conditions: VDR-bla HEK293T viability, CellTiter-Glo luminescence, 16 h; activity change, negative = cytotoxicity: at 62.6 µM (top of the series) unless noted
Method in brief: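 VDR-bla cell line, quantitative HTS format; 16 h compound incubation (37C, 5% CO2); ATP-based CellTiter-Glo luminescence measured in the reporter assay wells.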
Tags give direction and shape of the fitted curve or compound fluorescence and quenching.

CCC1(c2cnc[nH]2)Cc2ccccc2C1
inactive: Potency [2] | Potency [7]
inconclusive: Potency [1] 16.8 µM [falling, partial curve, poor fit] | Potency [3] 26.6 µM [falling, partial curve, poor fit] | Potency [4] 21.1 µM | Potency [5] 26.6 µM [cytotoxic, partial curve, poor fit] | activation [6] 10.6%

O=C(c1ccc(O)cc1O)c1ccc(O)cc1O
inactive: Potency [8]
inconclusive: ratio activity, negative = inhibition [1] -36.5% and -3.35% | Potency [4] 43.7 µM and 57.1 µM [activator] | Potency [9] 2.46 µM [cytotoxic, full curve, poor fit] and 692 nM [cytotoxic, single point] | ratio activity, negative = inhibition [5] -42.7% | activity change, negative = inhibition [10] -7.23% | Potency [11] 8.71 µM [rising, partial curve, poor fit] | viability change, negative = cytotoxic [11] 21.1% | activity change, negative = inhibition [7] -33.9%

CCCCCCCCCCCCCOP(=O)(O)O
active: Potency [12] 43.3 µM | Potency [13] 34.7 µM
inconclusive: Potency [1] 21.9 µM | Potency [3] 61.1 µM [falling, partial curve] | Potency [4] 50.9 µM | Potency [8] 4.36 µM [cytotoxic, full curve] | Potency [9] 54.9 µM [cytotoxic, partial curve, poor fit] | activity change, negative = inhibition [7] 7.53%

Nc1ccc2c(c1)CN1C(=O)c3ccccc3C1=N2
inconclusive: Potency [1] 14.6 µM [fluorescent] | Potency [3] 14.6 µM | Potency [14] 13 µM | Potency [9] 11.6 µM [cytotoxic, partial curve, poor fit] | Potency [5] 10.3 µM [rising, partial curve] | Potency [10] 13 µM | Potency [15] 14.6 µM [falling, single point] | Potency [6] 9.2 µM [fluorescent, partial curve] | Potency [7] 8.27 µM [partial curve]
inactive: Potency [2]

CCc1cccc(C)c1N
inactive: Potency [1] | Potency [3]

CC(C)c1ccc2sc3ccccc3c(=O)c2c1
inconclusive: ratio activity, negative = inhibition [1] 4.02% | Potency [13] 49 µM [cytotoxic] | Potency [4] 54.9 µM | Potency [8] 1.74 µM [cytotoxic, full curve, poor fit] | activation [14] 0.807% | Potency [9] 54.9 µM [cytotoxic, single point] | ratio activity, negative = inhibition [5] -79.1% | activation [16] 7.75% | activation [6] 2.46% | activity change, negative = inhibition [7] 13.8% | Potency [17] 54.9 µM [cytotoxic, single point]
active: Potency [3] 9.69 µM
inactive: Potency [12]

COc1ccc(-c2ccc3cc(C(=O)O)ccc3c2)cc1C12CC3CC(CC(C3)C1)C2
inconclusive: Potency [1] 26.6 µM [rising, partial curve] | Potency [3] 29.8 µM [falling, single point] | Potency [13] 29.8 µM [cytotoxic, partial curve, poor fit] | Potency [4] 27.6 µM | Potency [8] 9.44 µM [cytotoxic, partial curve] | Potency [14] 9.44 µM | Potency [9] 7.5 µM [cytotoxic, full curve] | ratio activity, negative = inhibition [5] 16.5% | Potency [15] 11.9 µM [falling, partial curve] | Potency [6] 33.5 µM [rising, single point]
active: Potency [12] 23.7 µM | Potency [11] 7.5 µM

O=C(O)CN(CC(=O)O)CC(=O)O
inactive: Potency [14] | Potency [10] | Potency [6]
active: Potency [3] 55.3 µM
inconclusive: Potency [1] 31.2 µM [activator, partial curve, poor fit] | Potency [2] 12.5 µM [rising, full curve, poor fit] | Potency [11] 0.0787 µM [rising, full curve, poor fit]
